Experimental data taken from the supplement of paper PMC12217912.
Some of the results follow. Sequences were assembled here from the parent chain. Values near 0.05 are background.

B1: TEV protease; numbered along this chain (parent)
chain: MGESLFKGPRDYNPISSSICHLTNESDGHTTSLYGIGFGPFIITNKHLFRRNNGTLVVQSLHGVFKVKDTTTLQQHLVDGRDMIIIRMPKDFPPFPQKLKFREPQREERICLVTTNFQTKSMSSMVSDTSCTFPSGDGIFWKHWIQTKDGQCGSPLVSTRDGFIVGIHSASNFTNTNNYFTSVPKNFMELLTNQEAQQWVSGWRLNADSVLWGGHKVFMVKPEEPFQPVKEATQL

Variants of: B1
Test: raw area under fraction-flipped curve 0-4 h after induction (AUC4h, not background-subtracted), DNA-recorder readout of cleavage of the substrate (dimensionless); higher = more cleavage of the substrate by the protease variant
Details: temperature: 34 °C; time window: 0-4 h after rhamnose induction
Method: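 In vivo DNA recorder in E. coli TOP10(DE3) ΔrhaA at 34 °C. Each TEVp single-site mutant (parent TEVp 0) is paired with a single-site variant of the 7-mer TEVs (canonical ENLYFQ|S). The substrate sits between flexible linkers in a Bxb1-sfGFP-TEVs-SsrA fusion, so cleavage stabilises Bxb1 and speeds flipping of a recombination array, read by NGS. The value is the raw area under the fraction-flipped curve over 0-4 h after rhamnose induction (AUC4h), with ≥20 reads per time point. It is not background-subtracted; inactive controls average about 0.047.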
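Further: Bxb1 expression induced with 0.2% (w/v) L-rhamnose at OD600 near 0.5, cultures sampled hourly, flipped fraction per protease–substrate barcode pair counted by paired-end Illumina sequencing.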

Variant	area with substrate ENLYFQA	area with substrate ENLYFQC	area with substrate ENLYFQD	area with substrate ENLYFQF	area with substrate ENLYFQG	area with substrate ENLYFQH	area with substrate ENLYFQI	area with substrate ENLYFQK	area with substrate ENLYFQL	area with substrate ENLYFQM	area with substrate ENLYFQN	area with substrate ENLYFQP	area with substrate ENLYFQR	area with substrate ENLYFQS	area with substrate ENLYFQT	area with substrate ENLYFQV	area with substrate ENLYFQW	area with substrate ENLYFQY	area with substrate ENLYFQE	area with substrate ENLYFQQ
MGESLFKGPRDYNIISSSICHLTNESDGHTTSLYGIGFGPFIITNKHLFRRNNGTLVVQSLHGVFKVKDTTTLQQHLVDGRDMIIIRMPKDFPPFPQKLKFREPQREERICLVTTNFQTKSMSSMVSDTSCTFPSGDGIFWKHWIQTKDGQCGSPLVSTRDGFIVGIHSASNFTNTNNYFTSVPKNFMELLTNQEAQQWVSGWRLNADSVLWGGHKVFMVKPEEPFQPVKEATQL [P14I]	0.0809	0.0968	0.0732	0.0694	0.0677	0.0458	0.0637	0.051	0.0607	0.101	0.076	0.046	0.0518	0.0885	0.0707	0.0561	0.0646	0.0925	–	–
MGESLFKGPRDYNPIASSICHLTNESDGHTTSLYGIGFGPFIITNKHLFRRNNGTLVVQSLHGVFKVKDTTTLQQHLVDGRDMIIIRMPKDFPPFPQKLKFREPQREERICLVTTNFQTKSMSSMVSDTSCTFPSGDGIFWKHWIQTKDGQCGSPLVSTRDGFIVGIHSASNFTNTNNYFTSVPKNFMELLTNQEAQQWVSGWRLNADSVLWGGHKVFMVKPEEPFQPVKEATQL [S16A]	0.11	0.107	–	0.0893	0.0934	0.078	–	0.0674	0.0568	0.101	–	0.0649	0.0739	0.109	0.0686	0.0642	0.0606	–	0.0757	0.0831
MGESLFKGPRDYNPICSSICHLTNESDGHTTSLYGIGFGPFIITNKHLFRRNNGTLVVQSLHGVFKVKDTTTLQQHLVDGRDMIIIRMPKDFPPFPQKLKFREPQREERICLVTTNFQTKSMSSMVSDTSCTFPSGDGIFWKHWIQTKDGQCGSPLVSTRDGFIVGIHSASNFTNTNNYFTSVPKNFMELLTNQEAQQWVSGWRLNADSVLWGGHKVFMVKPEEPFQPVKEATQL [S16C]	0.114	0.12	0.0661	0.0664	–	0.0716	0.0535	0.0689	0.0729	0.0973	0.0801	0.0755	0.0542	0.101	0.0735	0.065	0.0639	–	–	–
MGESLFKGPRDYNPIDSSICHLTNESDGHTTSLYGIGFGPFIITNKHLFRRNNGTLVVQSLHGVFKVKDTTTLQQHLVDGRDMIIIRMPKDFPPFPQKLKFREPQREERICLVTTNFQTKSMSSMVSDTSCTFPSGDGIFWKHWIQTKDGQCGSPLVSTRDGFIVGIHSASNFTNTNNYFTSVPKNFMELLTNQEAQQWVSGWRLNADSVLWGGHKVFMVKPEEPFQPVKEATQL [S16D]	0.0751	–	0.0673	–	0.0752	–	0.071	0.068	0.0616	0.0586	0.0726	–	0.0634	0.0958	0.0626	–	0.0383	–	–	0.0573
MGESLFKGPRDYNPIESSICHLTNESDGHTTSLYGIGFGPFIITNKHLFRRNNGTLVVQSLHGVFKVKDTTTLQQHLVDGRDMIIIRMPKDFPPFPQKLKFREPQREERICLVTTNFQTKSMSSMVSDTSCTFPSGDGIFWKHWIQTKDGQCGSPLVSTRDGFIVGIHSASNFTNTNNYFTSVPKNFMELLTNQEAQQWVSGWRLNADSVLWGGHKVFMVKPEEPFQPVKEATQL [S16E]	0.105	0.111	–	0.0765	0.0772	0.0824	0.0606	0.0588	0.0632	0.0913	0.084	0.0581	0.0604	0.101	0.0755	0.0524	0.0654	0.0736	–	0.0786
MGESLFKGPRDYNPIGSSICHLTNESDGHTTSLYGIGFGPFIITNKHLFRRNNGTLVVQSLHGVFKVKDTTTLQQHLVDGRDMIIIRMPKDFPPFPQKLKFREPQREERICLVTTNFQTKSMSSMVSDTSCTFPSGDGIFWKHWIQTKDGQCGSPLVSTRDGFIVGIHSASNFTNTNNYFTSVPKNFMELLTNQEAQQWVSGWRLNADSVLWGGHKVFMVKPEEPFQPVKEATQL [S16G]	0.1	0.139	0.0666	–	0.112	–	0.0519	0.0507	0.0731	0.109	0.0544	0.0325	0.0681	0.109	0.0633	0.0694	0.0607	0.0695	–	–
MGESLFKGPRDYNPIISSICHLTNESDGHTTSLYGIGFGPFIITNKHLFRRNNGTLVVQSLHGVFKVKDTTTLQQHLVDGRDMIIIRMPKDFPPFPQKLKFREPQREERICLVTTNFQTKSMSSMVSDTSCTFPSGDGIFWKHWIQTKDGQCGSPLVSTRDGFIVGIHSASNFTNTNNYFTSVPKNFMELLTNQEAQQWVSGWRLNADSVLWGGHKVFMVKPEEPFQPVKEATQL [S16I]	0.0998	0.0719	0.075	0.0856	0.0943	0.0704	0.0562	0.0768	0.0693	0.0759	0.0869	0.0492	0.0737	0.0894	0.0687	0.0607	0.0557	0.0701	0.0548	0.0529
MGESLFKGPRDYNPIMSSICHLTNESDGHTTSLYGIGFGPFIITNKHLFRRNNGTLVVQSLHGVFKVKDTTTLQQHLVDGRDMIIIRMPKDFPPFPQKLKFREPQREERICLVTTNFQTKSMSSMVSDTSCTFPSGDGIFWKHWIQTKDGQCGSPLVSTRDGFIVGIHSASNFTNTNNYFTSVPKNFMELLTNQEAQQWVSGWRLNADSVLWGGHKVFMVKPEEPFQPVKEATQL [S16M]	0.0975	0.102	–	0.0928	–	0.0919	0.0614	0.065	0.0622	0.0887	0.0548	–	0.0613	0.111	0.0656	0.0496	0.0647	–	0.064	–
MGESLFKGPRDYNPINSSICHLTNESDGHTTSLYGIGFGPFIITNKHLFRRNNGTLVVQSLHGVFKVKDTTTLQQHLVDGRDMIIIRMPKDFPPFPQKLKFREPQREERICLVTTNFQTKSMSSMVSDTSCTFPSGDGIFWKHWIQTKDGQCGSPLVSTRDGFIVGIHSASNFTNTNNYFTSVPKNFMELLTNQEAQQWVSGWRLNADSVLWGGHKVFMVKPEEPFQPVKEATQL [S16N]	0.123	–	0.0641	–	0.0908	0.0794	0.068	0.0408	0.0556	0.0988	0.0826	–	0.0592	0.104	0.06	0.0822	0.0611	0.0924	–	0.0576
